From the supplement of paper PMC10126150
Values marked as one replicate rest on one cluster of the flow cell; about a third of the high ones do not repeat.
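Also: ATP exposure 15 min at 22 °C before imaging.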

Each sequence was assayed on ATP (assay: switch fluorescence ratio, 500 uM ATP over buffer (Cy3 cluster intensity, sum of 5 cycles each) (fold (ratio)); higher = stronger signal-on switching upon ATP binding; sequences stand for … in TCGTCGGCAGCGTCAGATGTGTATAAGAGACAGTTTTTTTTTTTTTTTTTTTTTTTTT…TC). Conditions: aptamer strand: ATP DNA aptamer (quencher-CACCTGGGGGAGTATTGCGGAGGAAGG + anchor), 100 nM annealed; ATP concentration: 500 uM; one replicate.
How it was run: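 Between each of five buffer/ATP cycles, the flow-cell was stripped with NaOH and re-annealed. Each cycle imaged Cy3-labelled switching-strand clusters, annealed to 100 nM quencher-labelled ATP aptamer on a modified Illumina MiSeq flow-cell, first in selection buffer and then after 15 min with 500 uM ATP at 22 °C. The fluorescence ratio is summed target-cycle over summed buffer-cycle Cy3 intensity per cluster, averaged per switch-domain sequence, with clusters outside 100-1000 RFU excluded.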
AGACTGGGTC showed a switch fluorescence ratio of 1.01. AGACTTCGCC gave a switch fluorescence ratio of 1.07. With AGAGAACATG the switch fluorescence ratio was 0.975. Sequence AGAGACTATG has a switch fluorescence ratio of 0.949. AGAGAGATCG was tested, and the switch fluorescence ratio was 1.03. In the case of AGAGAGGTCT, the switch fluorescence ratio is reported as 0.995. AGAGAGGTGC showed a switch fluorescence ratio of 1.1. Sequence AGAGAGGTGG has a switch fluorescence ratio of 1. Work on AGAGATGAA yielded a switch fluorescence ratio of 0.953. AGAGATTAAT was tested, and the switch fluorescence ratio was 0.951. AGAGATTAGT showed a switch fluorescence ratio of 0.975. Sequence AGAGCAAAAT has a switch fluorescence ratio of 1.15. AGAGCAGAAC showed a switch fluorescence ratio of 1.56. AGAGCATGAA gave a switch fluorescence ratio of 1.04. AGAGCCATAT gave a switch fluorescence ratio of 1.04. Sequence AGAGCCTATG has a switch fluorescence ratio of 1.04. AGAGGACGGA showed a switch fluorescence ratio of 1.01. AGAGGCGGGG showed a switch fluorescence ratio of 1.02. Sequence AGAGGCTCGG has a switch fluorescence ratio of 1.01. In the case of AGAGGGGCAT, the switch fluorescence ratio is reported as 0.979. AGAGGGTAGC was tested, and the switch fluorescence ratio was 0.982. Sequence AGAGGGTGGA has a switch fluorescence ratio of 1. Sequence AGAGGTTCGC has a switch fluorescence ratio of 0.97. With AGAGTAAA the switch fluorescence ratio was 1. AGAGTAACAC showed a switch fluorescence ratio of 0.959. Sequence AGAGTAGTGA has a switch fluorescence ratio of 1.02. Work on AGAGTCAACG yielded a switch fluorescence ratio of 1.03. AGAGTCTCAA gave a switch fluorescence ratio of 0.988. For AGAGTGAAAG, the switch fluorescence ratio was 0.974. AGAGTTTACG gave a switch fluorescence ratio of 1.01. For AGATAACCAG, the switch fluorescence ratio was 1.03. For AGATAAGTGT, the switch fluorescence ratio was 0.944. AGATACATGG showed a switch fluorescence ratio of 1.01. For AGATACGGA, the switch fluorescence ratio was 1.08. In the case of AGATATACTC, the switch fluorescence ratio is reported as 1.11. In the case of AGATATGTCG, the switch fluorescence ratio is reported as 1.07. With AGATATTTCC the switch fluorescence ratio was 1.04. AGATCCCGAT gave a switch fluorescence ratio of 1.01. Sequence AGATCTCAAT has a switch fluorescence ratio of 0.986. Work on AGATGAAAGG yielded a switch fluorescence ratio of 1.03. With AGATGAATTT the switch fluorescence ratio was 0.97. In the case of AGATGACCGC, the switch fluorescence ratio is reported as 1.1. With AGATGCCCGG the switch fluorescence ratio was 0.995. For AGATGCGCCG, the switch fluorescence ratio was 0.964. Sequence AGATGCTCTT has a switch fluorescence ratio of 0.978. With AGATGGCCAG the switch fluorescence ratio was 1. AGATGGTAC showed a switch fluorescence ratio of 1.07. AGATGGTCGC showed a switch fluorescence ratio of 1.03. AGATGTAATT showed a switch fluorescence ratio of 1.01. Sequence AGATGTGTTG has a switch fluorescence ratio of 1. With AGATGTTGCA the switch fluorescence ratio was 1. AGATTAACAA showed a switch fluorescence ratio of 1.01. Work on AGATTAATGG yielded a switch fluorescence ratio of 1.02. Sequence AGATTACCGG has a switch fluorescence ratio of 1.01. AGATTGATAG was tested, and the switch fluorescence ratio was 1.01. For AGATTTTTCT, the switch fluorescence ratio was 0.926. Sequence AGCAAATCAG has a switch fluorescence ratio of 0.972. For AGCAACAACG, the switch fluorescence ratio was 1.03. Sequence AGCAAGCCCC has a switch fluorescence ratio of 2.39. AGCAAGCGT was tested, and the switch fluorescence ratio was 1.05. Work on AGCAAGGGTA yielded a switch fluorescence ratio of 0.969. AGCAAGTTGA gave a switch fluorescence ratio of 1. In the case of AGCAATGGTG, the switch fluorescence ratio is reported as 1.46. AGCACGTCGG gave a switch fluorescence ratio of 1.01. AGCACTCACC showed a switch fluorescence ratio of 1.77. AGCACTGGGG showed a switch fluorescence ratio of 0.997. In the case of AGCAGAATGC, the switch fluorescence ratio is reported as 1.01. With AGCAGCATTT the switch fluorescence ratio was 0.992. Work on AGCAGGAACG yielded a switch fluorescence ratio of 1.02. AGCAGGCAGC was tested, and the switch fluorescence ratio was 0.995. AGCAGGCCCA showed a switch fluorescence ratio of 1.08. AGCAGTAGAT showed a switch fluorescence ratio of 1.07. Work on AGCAGTATGC yielded a switch fluorescence ratio of 1.05. AGCAGTCATG was tested, and the switch fluorescence ratio was 0.988. Work on AGCAGTCGA yielded a switch fluorescence ratio of 1.18. For AGCAGTCGCC, the switch fluorescence ratio was 1.04. With AGCAGTTGAG the switch fluorescence ratio was 0.999. For AGCATAGTCT, the switch fluorescence ratio was 1.08. In the case of AGCATGGAAC, the switch fluorescence ratio is reported as 1.13. Sequence AGCATGGGCC has a switch fluorescence ratio of 1.07. In the case of AGCATGGTTA, the switch fluorescence ratio is reported as 0.988. In the case of AGCATTCACG, the switch fluorescence ratio is reported as 1.09. Sequence AGCATTGCGT has a switch fluorescence ratio of 1. With AGCCAACCGC the switch fluorescence ratio was 1.03. Sequence AGCCAATAGG has a switch fluorescence ratio of 0.994.
